# Source: PubChem BioAssay AID624202 (National Center for Advancing Translational Sciences (NCATS), 2012)
# In all, about 380,000 compounds went through this assay and about 4,000 (1.1%) were called active. The inconclusive results got no clear call from the source; some entries with a clear call stand among them for comparison. The call rests on the fitted dose curve; in most records, active means well fitted activation curve with a large enough effect; inconclusive means small, poorly fitted or top-dose-only effect; inactive means no such curve, though single readings can be large or run the other way. Where the call is inconclusive, the potency comes from a doubtful curve fit.
# Test: qHTS Assay to Identify Small Molecule Activators of BRCA1 Expression; further: nearly all actives have a fitted effect of over 80% in size
# Conditions: MCF7-BRCA1-FFLuc reporter, luminescence, 48 h; activation: at 46.1 µM (top of the series), scaled: vehicle 0%, 10 µM genistein 100% unless noted
# Summary of the method: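 MCF7-BRCA1-FFLuc, 2000 cells/well; 2 h attach, 37 °C/5% CO2; compound 48 h; luciferase substrate 15 min; luminescence end-point. Norm. to genistein 10 microM max activation and DMSO; concentration-response curves fitted.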
# Potency means the concentration at half of the fitted maximal effect; tags describe the fitted curve by direction and shape.
Structure (SMILES),Potency,activation
c1ccc(-c2csc(Nc3ccc4c(c3)OCO4)n2)cc1,"inconclusive: 0.631 µM [activator, full curve, poor fit]",
O=C(Nc1ccc(-c2nc3cccnc3s2)cc1)c1ccco1,"inconclusive: 0.631 µM [activator, full curve, poor fit]",
COc1cc(-c2nnn(CC(=O)NC3CCS(=O)(=O)C3)n2)ccc1OCc1ccccc1 (configuration not stated),"inconclusive: 35.5 µM [activator, single point]",
CCc1ccc2oc(-c3cc(N)cc(C)c3O)nc2c1,"inconclusive: 35.5 µM [activator, single point]",
Cc1ccc(/C=N\NC(=O)c2csnn2)cc1,"inconclusive: 11.2 µM [activator, partial curve, poor fit]",
Cc1csc(NC(=O)CSc2nnc(-c3ccoc3C)o2)n1,active: 10 µM,
CC(=O)Nc1c(C(=O)Nc2ccc3c(c2)OCO3)oc2ccccc12,"inconclusive: 1.58 µM [activator, full curve, poor fit]",
CN(C(=O)CN1C(=O)S/C(=C\c2ccc(F)cc2)C1=O)C1CCS(=O)(=O)C1 (configuration not stated),inactive,
Cc1ccc(C(=O)N/N=C2\CCCc3ccccc32)c(C)c1,"inconclusive: 11.2 µM [activator, partial curve, poor fit]",
O=C(OC1CCCCC1)c1cc2ccccc2oc1=O,"inconclusive: 35.5 µM [activator, single point]",
O=C(Nc1ccc(SC(F)F)cc1)C12CCC(CC1)C2,"inconclusive: 10 µM [activator, partial curve, poor fit]",
Cc1cc(/C=C(\C#N)C(=O)NCc2ccco2)c(C)n1C1CCCC1,"inconclusive: 12.6 µM [activator, partial curve, poor fit]",
NS(=O)(=O)c1cccc(NC(=O)CCSc2ccccc2Cl)c1,active: 10 µM,
OCCCNc1ncnc2c1cnn2-c1ccc(Cl)cc1,,inconclusive: 59.5% [activator]
Fc1ccc(-c2nnc(-c3ccc(Cl)cc3)o2)cc1,active: 2 µM,
Fc1ccc(CSc2nc3ccccc3[nH]2)cc1,"inconclusive: 2 µM [activator, full curve, poor fit]",
Cc1ccc(C2=NN(S(C)(=O)=O)C(c3ccc4nccnc4c3)C2)cc1 (configuration not stated),"inconclusive: 10 µM [activator, partial curve, poor fit]",
CCCCNC(=O)c1onc(CSc2cccc(Cl)c2)c1C(=O)O,inactive,
Cc1nnc(-c2ccc(N3CCCCCC3)c([N+](=O)[O-])c2)o1,active: 22.4 µM,
COc1ccc(C=NNc2ccc([N+](=O)[O-])cn2)cc1,"inconclusive: 0.562 µM [activator, full curve, poor fit]",
Fc1ccc(/C=N/NC(=S)Nc2ccc(Cl)cc2)cc1F,"inconclusive: 2.24 µM [activator, partial curve, poor fit]",
COCc1cc(=O)[nH]c(/N=C(\N)Nc2ccc(Oc3ccccc3)cc2)n1,inactive,
CCn1c(-c2ccc(C(C)(C)C)cc2)n[nH]c1=S,inactive,
C(=N\c1nc2ccccc2[nH]1)/c1cccs1,inactive,
CCn1c(SCC(=O)N2CCN(c3ccccc3)CC2)nnc1-c1ccoc1C,inactive,
O=C(NCc1ccc(Cl)cc1)c1n[nH]c([N+](=O)[O-])c1Cl,"inconclusive: 28.2 µM [activator, single point]",

Structure (SMILES),Potency,activation
COC(=O)C1C(=O)c2c([nH]c(C(=O)OCCOC(C)C)c2C)CC1C (configuration not stated),inactive,
CC(=O)c1cc2c(=O)c3ccccc3oc2nc1C,active: 10 µM,
COc1ccc(/C(N)=N/OC(=O)c2cccs2)cc1,"inconclusive: 2.51 µM [activator, full curve, poor fit]",
Cc1sc(N)nc1-c1ccc2c(c1)OCCO2,"inconclusive: 3.98 µM [activator, partial curve, poor fit]",
N#C/C(=N\Nc1ccccc1)C(=N)N1CCCCC1,"inconclusive: 2.51 µM [activator, full curve, poor fit]",
O=C(O)C(Cc1c[nH]c2ccccc12)N1Cc2ccccc2C1=O (configuration not stated),"inconclusive: 11.2 µM [activator, partial curve, poor fit]",
CCC(C)NC(=O)c1cc(-c2ccc(OC)cc2)on1 (configuration not stated),"inconclusive: 1.58 µM [activator, full curve, poor fit]",
COc1ccccc1OCc1ccc(C(=O)c2ccccc2)cc1,"inconclusive: 15.8 µM [activator, single point]",
O=C(c1ccc2oc(CCCc3ccccc3)nc2c1)N1CCCC1,active: 7.08 µM,
CCN(CC)C(=O)C(=O)Nc1cccc(Br)c1,"inconclusive: 12.6 µM [activator, partial curve, poor fit]",
CCN(CC)C(=O)Oc1ccc2ccccc2c1Br,"inconclusive: 22.4 µM [activator, single point]",
CC(C)C(=O)Nc1ccc(NC(=O)c2ccco2)cn1,"inconclusive: 11.2 µM [activator, partial curve, poor fit]",
Cc1nc(Nc2ccc(C(=O)O)cc2)sc1-c1ccccc1,,inconclusive: -54.2% [activator]
Cc1ccc(CNC(=O)COC(=O)c2ccccc2OCC(=O)Nc2ccc(Br)cc2)cc1,inactive,
CCOC(=O)N1CCN(C(=O)c2cc(COc3c(F)cccc3F)on2)CC1,"inconclusive: 10 µM [activator, partial curve, poor fit]",
O=C(O)/C=C/c1cccc(B(O)O)c1,inactive,
COc1cccc(C(=O)O/N=C(\N)c2ccccn2)c1,"inconclusive: 1.26 µM [activator, full curve, poor fit]",
COc1ccc2cc3c(N)c(C(=O)NCc4ccco4)sc3nc2c1,active: 5.62 µM,
CCc1ccc(N2CN(CCc3ccccc3)CNC2=S)cc1,inactive,
COC(=O)C(Cc1ccc(OC(=O)c2ccc(Cl)cc2)cc1)N1Cc2ccccc2C1=O (configuration not stated),active: 12.6 µM,
C=CCNC(=O)/C=C/c1ccc(C(C)C)cc1,"inconclusive: 12.6 µM [activator, partial curve, poor fit]",
CSc1cccc(NC(=O)Nc2ccccc2)c1,"inconclusive: 12.6 µM [activator, single point]",
COc1cccc(CNCCc2c[nH]c3ccccc23)c1OCc1ccccc1,inactive,
CCCCCOc1ccc(NS(C)(=O)=O)cc1,active: 11.2 µM,
O=C1S/C(=C/c2ccc(N3CCOCC3)o2)C(=O)N1Cc1ccc(F)cc1,inactive,
COc1cc(CNC(=O)c2cccc(COc3ccc(Cl)cc3)c2)cc(OC)c1,inactive,

Structure (SMILES),Potency,activation
COc1ccc(/C(N)=N/OC(=O)Cc2ccc(C)cc2)cc1,"inconclusive: 8.91 µM [activator, partial curve, poor fit]",
O=[N+]([O-])c1cc(N=Nc2ccc3ccccc3c2)ccc1O,"inconclusive: 2 µM [activator, full curve, poor fit]",
COc1ccc(NC(=O)Nc2ccc3[nH]ccc3c2)cc1,active: 3.16 µM,
Cc1ccnc(Nc2nc(-c3ccc(Cl)cc3)cs2)c1,"inconclusive: 7.08 µM [activator, partial curve, poor fit]",
CC(=O)Nc1ccccc1NC(=O)C/C(C)=N/NC(=O)c1ccccn1,"inconclusive: 1.58 µM [activator, full curve, poor fit]",
O=C(Nc1ccc(C#Cc2ccccc2)cc1)C1CC1,"inconclusive: 2 µM [activator, full curve, poor fit]",
O=C(NN=Cc1ccc(OC(F)F)cc1)c1ccc(NS(=O)(=O)c2cccs2)cc1,"inconclusive: 11.2 µM [activator, partial curve, poor fit]",
CC1Oc2ccccc2C=C1/C=N/NC(=O)c1ccccc1 (configuration not stated),active: 3.16 µM,
O=c1oc2ccccc2cc1-c1csc(NN=C2CCCC2)n1,"inconclusive: 14.1 µM [activator, single point]",
Cc1ccc([N+](=O)[O-])c2c1C(N1CCCC1)C(C)(C)O2 (configuration not stated),inactive,
Cc1ccccc1NC(=S)Nc1ccc2[nH]c(=O)[nH]c2c1,inactive,
CCCCOc1cccc(C(=O)N(Cc2ccc(C)o2)c2ccccn2)c1,inactive,
Cc1ccc2nc(SCc3nc4ccccc4c(=O)[nH]3)[nH]c2c1,active: 3.98 µM,
COc1ccc(-n2c(-c3ccc(Br)cc3)c[n+]3c2SC(C)C3)cc1 (configuration not stated),inactive,
C/C(Sc1nnc(Cc2ccccc2)o1)=C(\O)c1ccccc1,inactive,
Cc1ccc(Cl)cc1N1CCN(CCCNC(=O)c2ccc3nc(N4CCCCC4)sc3c2)CC1,,inconclusive: 101% [activator]
COc1cc(OC)cc(C(=O)Nc2ccc(-n3cnnn3)c(C)c2)c1,"inconclusive: 11.2 µM [activator, partial curve, poor fit]",
O=C(CSc1cccc2cccnc12)N1CCCC1,inactive,
O=C(COC(=O)c1ccccn1)Nc1nc(-c2ccccc2)cs1,"inconclusive: 15.8 µM [activator, partial curve, poor fit]",
CC(C)n1[nH]c2ccccc2c1=O,inactive,
COc1ccc2nc(NC(=O)c3c(C)noc3C)sc2c1,active: 2.82 µM,
O=C(c1ccc(S(=O)(=O)Cc2cc(F)ccc2F)c([N+](=O)[O-])c1)N1CCCC1,inactive,
O=C(Cc1nc2ccccc2[nH]c1=O)c1ccccc1,active: 5.62 µM,
Cc1cc(/C=C2/NC(=O)N(c3ccccc3)C2=O)c(C)n1-c1cccnc1,active: 1.26 µM,
CN1CCN(c2ccc(NC(=S)NC(=O)/C=C/c3ccco3)cc2)CC1,active: 4.47 µM,
